Laboratory results reported in PubChem BioAssay AID651820 (National Center for Advancing Translational Sciences (NCATS), 2012).
Values joined by “and” are separate entries in the source; they are usually repeats but may differ in a detail not shown here. Identical values can stand only once. Out of some 340,000 compounds screened, about 12,000 (3.5%) were called active. Inconclusive means that the source gave no clear call. Such entries were picked first, then a sample of the others. Calls follow the shape of the dose curve; as a rule, active = well fitted inhibition curve with a large enough effect; inconclusive = small, poorly fitted or top-dose-only effect, or another doubt; inactive = no such curve, though single readings can be large or run the other way. Potencies beside an inconclusive call are fits to weak or partial responses and may not hold up.

experiment: qHTS Assay for Inhibitors of Hepatitis C Virus (HCV); conditions: Huh7.5.1 HCVcc-Cre (HCVcc is cell-culture hepatitis C virus) infection, luciferase reporter, 44 h; activity change, negative = inhibition: at 41.8 µM (top of the series) unless noted
How it was run: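 Luciferase read-out (15 sec integration) after a 15 min room-temperature substrate step quantifies HCVcc-Cre infection. Cells, 1,000 per well, had compound added 4 h post-plating, then virus at ~0.5 moi, and were cultured 44 h.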
% is scaled to controls: 0 for no effect and ±100 for the full control effect; potency is read from the fitted curve at half-maximal effect; tags tell the direction and shape of the fitted curve.

SMILES	Potency	activity change, negative = inhibition
Cc1cc(C)c(NC(=O)CSc2nnc(-c3ccncc3)n2Cc2ccco2)c(C)c1	inconclusive: 22.4 µM [inhibitor, single point]	–
COc1ccc(CCNC(=O)CN2C(=O)NC3(CCOc4ccccc43)C2=O)cc1 (centres undefined)	inconclusive: 0.891 µM [inhibitor, full curve]	–
COc1ccc(OC)c(-c2cc(C(=O)Nc3c(C)nn(Cc4ccccc4Cl)c3C)no2)c1	active: 15.8 µM	–
O=C(Nc1nnc(C(F)(F)F)s1)c1ccc(Br)s1	inconclusive: 22.4 µM [inhibitor, single point]	–
COc1ccc(C(=O)C2CCCN(Cc3cccn3-c3ccc(Cl)cn3)C2)c(OC)c1 (centres undefined)	active: 8.91 µM	–
CCOC(=O)C1=C(C)N=c2s/c(=C\c3ccncc3)c(=O)n2C1c1ccc2c(c1)OCO2 (centres undefined)	inconclusive: 22.4 µM [inhibitor, partial curve]	–
O=C(C1CCN(S(=O)(=O)c2ccc(-n3cnnn3)cc2)CC1)N1CCCCC1	–	inactive: -38.1%
CSCc1c(C(=O)OCC(=O)c2ccc[nH]2)oc2ccccc12	inconclusive: 14.1 µM [inhibitor, single point]	–
N#Cc1ccccc1OCC(=O)Nc1cc(S(=O)(=O)N2CCCCC2)ccc1N1CCOCC1	inconclusive: 2 µM [inhibitor, full curve, poor fit]	–
Clc1cccc(/C=N\Nc2nccs2)c1	–	inactive: 3.63%
Cn1c(SCC(=O)NC2CCCC2)nnc1C(F)(F)F	–	inactive: 18.8%
COc1ccc2c(c1)c(C(O)CN1CCN(Cc3ccc4c(c3)OCO4)CC1)c(C)n2C (centres undefined)	inconclusive: 31.6 µM [inhibitor, single point]	–
O=C(Nc1ccc(Br)cc1Br)c1cccc2c1C(=O)N(C1CCCCC1)C2	inconclusive: 14.1 µM [inhibitor, single point]	–
COc1cc2sc(C)nc2c2ccccc12	active: 10 µM	–
COCCN1C(=O)NC(=O)/C(=C\c2ccc(Br)cc2)C1=O	–	inactive: -3.75%
O=C(CSc1ncnc2scc(-c3ccc(Cl)cc3)c12)NCc1ccc2c(c1)OCO2	inconclusive: 2.82 µM [inhibitor, partial curve]	–
COC(=O)c1ccc(S(=O)(=O)N2CCCN(Cc3ccc(F)cc3)CC2)n1C	active: 11.2 µM	–
COc1cccc(OCc2nc3c4cnn(-c5ccccc5)c4ncn3n2)c1	inconclusive: 31.6 µM [inhibitor, single point]	–
CCC(C(=O)Nc1cccc(C(=O)O)c1C)c1ccccc1 (centres undefined)	–	inactive: -0.335%
Cc1nnc(NC(=O)c2ccc(S(=O)(=O)N3CCCCC3C)cc2)o1 (centres undefined)	–	inactive: 1.21%
COc1ccc(OC)c(-c2csc(NC(=O)C3COc4ccccc4O3)n2)c1 (centres undefined)	inconclusive: 8.91 µM [inhibitor, partial curve]	–
O=C(CN1CCN(S(=O)(=O)c2ccc(F)cc2)CC1)NCC1(N2CCOCC2)CCCCC1	–	inactive: 12.9%
CCCN(CCC)CCCNC(=O)c1cn(CC)c2ccc(S(=O)(=O)N(C)C3CCCCC3)cc2c1=O	inconclusive: 2.82 µM [inhibitor, single point]	–

SMILES	Potency	activity change, negative = inhibition
O=C(C1CCC1)N1CCCc2cc(S(=O)(=O)N3CCN(c4ccccc4)CC3)ccc21	inconclusive: 31.6 µM [inhibitor, single point]	–
Cc1noc(C)c1C(=O)Nc1cccc(S(=O)(=O)N2CCCCC2)c1	–	inactive: -5.95%
CC(=O)c1cccc(N(CC(=O)NC2CCCCC2)C(=O)c2csnn2)c1	inconclusive: 3.16 µM [inhibitor, single point]	–
CCOC(=O)N1CCC(NC(=O)c2cc3c(-c4ccc(OC)c(OC)c4)nn(C)c3s2)CC1	inconclusive: 8.91 µM [inhibitor, partial curve] and inconclusive: 5.62 µM [inhibitor, partial curve]	–
CC(C)OCc1ccc(C(=O)N2CCN(S(=O)(=O)c3ccc(Br)s3)CC2)cc1	inconclusive: 31.6 µM [inhibitor, single point]	–
CCCCNc1nc(-c2ccccc2)c(C(=O)OCC)cc1C#N	inconclusive: 11.2 µM [inhibitor, partial curve]	–
Cc1cc(/C=N/NC(=O)c2ccccn2)c(C)n1-c1cccc([N+](=O)[O-])c1	inconclusive: 1 µM [inhibitor, partial curve]	–
Cc1cc(C)nc(N=Nc2c(O)n(Cc3ccc(Cl)cc3)c3ccccc23)n1	inconclusive: 15.8 µM [inhibitor, single point]	–
c1ccc(Oc2cccc(CN3CCCCC3)c2)cc1	inconclusive: 6.31 µM [inhibitor, partial curve]	–
C=CCOC(=O)C(=O)/C=C/c1ccc2c(c1)Cc1ccccc1-2	–	inactive: 18.4%
O=C(CCc1nnc(CCCc2ccccc2)o1)N1CCCCCC1	–	inactive: 1.1%
COc1ccc(C)cc1-n1nnnc1SCC(=O)NNC(=O)c1ccc([N+](=O)[O-])cc1	inconclusive: 10 µM [inhibitor, partial curve]	–
O=C(Nc1ccc(Cl)cn1)c1ccccc1SCc1ccccc1	inconclusive: 2.24 µM [inhibitor, single point]	–
CCOc1ccc(CN(C)C(=O)CN2C(=O)NC(c3ccccc3)(c3ccccc3)C2=O)cc1	inconclusive: 22.4 µM [inhibitor, single point]	–
CC(C)N(Cc1nccn1C)C(=O)c1cc(COc2ccc3ncccc3c2)on1	inconclusive: 11.2 µM [inhibitor, single point]	–
CCn1c2ccccc2c2cc(NC(=O)Cc3ccc(S(=O)(=O)N4CCOCC4)s3)ccc21	inconclusive: 11.2 µM [inhibitor, single point] and inconclusive: 22.4 µM [inhibitor, single point]	–
CCN(Cc1nc2ccccc2c(=O)[nH]1)C(=O)COc1ccccc1-c1ccccc1	inconclusive: 22.4 µM [inhibitor, single point]	–
CC1(C)SC(=S)N(/N=C/c2cccnc2)C1N(O)C(=O)NC1CCCCC1 (centres undefined)	active: 7.94 µM	–
Cc1ccc(S(=O)(=O)N2CCOCC2)cc1NC(=O)CSc1nnc2cc(C)c3ccccc3n12	inconclusive: 31.6 µM [inhibitor, single point]	–
COc1ccc(OC)c(Nc2cc(-c3ccccc3)nc(N)n2)c1	inconclusive: 11.2 µM [inhibitor, partial curve]	–
c1ccc(CSc2nnc(-c3sccc3-n3cccc3)o2)cc1	inconclusive: 22.4 µM [inhibitor, single point]	–
Oc1ccc(Br)cc1/C=N/n1c(-c2ccccc2)n[nH]c1=S	–	inactive: -8.09%
S=C(NCCN1CCOCC1)Nc1ccc(-c2nc3ccccc3[nH]2)cc1	inconclusive: 31.6 µM [inhibitor, single point]	–

SMILES	Potency	activity change, negative = inhibition
Nc1c2c(nc3ccccc13)CCCC2O (centres undefined)	–	inactive: -4.94%
CC(=NCCCn1ccnc1)c1c(O)n(C)c(=O)n(C)c1=O	–	inactive: 3.99%
COc1ccc(N(CC(=O)NCc2ccco2)S(=O)(=O)c2ccc(C)cc2)cc1OC	–	inactive: 11.6%
N#Cc1c(-c2ccc(Cl)cc2)c(-c2ccc(Cl)cc2)nn(CCOC(=O)CCC(=O)O)c1=O	–	inactive: -8.67%
COc1ccc(CNc2ncnc3sccc23)cc1	inconclusive: 2 µM [inhibitor, full curve]	–
CSc1nc(N)c2c(n1)N(C)C=NS2(=O)=O	–	inactive: 15.3%
Cc1cc(C)n2nc(SCC(=O)Nc3c(C)n(C)n(-c4ccccc4)c3=O)nc2n1	inconclusive: 0.501 µM [inhibitor, partial curve, poor fit]	–
Cc1cc(Oc2ccccc2)nc(SCC(=O)Nc2ccc(Cl)c(Cl)c2)n1	inconclusive: 10 µM [inhibitor, partial curve]	–
CCOC(=O)N1CCN(CC(=O)Nc2ccc([N+](=O)[O-])cc2C(=O)Nc2ccccc2F)CC1	inconclusive: 31.6 µM [inhibitor, single point]	–
COc1ccccc1NC(=O)CN1CCN(c2ccc(Cl)cc2)CC1	inconclusive: 31.6 µM [inhibitor, single point]	–
O=C(Cc1ccc(NC(=O)C2CCN(C(=O)C3CC3)CC2)cc1)Nc1ccc(C(=O)N2CCOCC2)cc1	–	inactive: 45.1% [at 8.37 µM]
COc1ccc(N(CC(=O)Nc2ccc3c(c2)OCCO3)S(=O)(=O)c2cccnc2)cc1	inconclusive: 10 µM [inhibitor, partial curve]	–
Clc1ccc(OCc2noc(-c3ccsc3)n2)c(Cl)c1	–	inactive: -8.48%
CCNc1nc(NCC)n2c(SCC(=O)c3ccccc3Cl)nnc2n1	–	inactive: -0.684%
COC(=O)[C@H](Cc1ccccc1)NC(=O)Cn1cnc(C(=O)Nc2ccc(C)c(C)c2)n1	inconclusive: 31.6 µM [inhibitor, single point]	–
COc1ccccc1/C=C/CN1CCC(CO)(Cc2ccccc2)CC1	inconclusive: 0.562 µM [inhibitor, full curve]	–
O=S(=O)(NCc1ccccc1)[C@@H]1CC2C=CC1C2 (some centres undefined)	inconclusive: 5.62 µM [inhibitor, single point]	–
Cc1ccc(C)c(OCCCCn2cnc3ccccc3c2=O)c1	–	inactive: -25.9%
Cc1ccc(C)c(NC(=S)NCc2ccc3[nH]c4c(c3c2)CCCC4)c1	inconclusive: 15.8 µM [inhibitor, single point]	–
C=CCc1cccc(/C=N/NC(=O)C(=O)Nc2ccc(C)cc2)c1O	–	inactive: 11%
CCn1cc(CN2CCCC(C(=O)Nc3cccc(-c4cc5ccccc5[nH]4)c3)C2)cn1 (centres undefined)	inconclusive: 20 µM [inhibitor, partial curve]	–
COc1ccc2c(C)c(CC(=O)N3C[C@H]4C[C@@H](C3)c3cccc(=O)n3C4)c(=O)oc2c1C	–	inactive: 1.77%
COC(=O)c1ccccc1NC(=O)C1CCN(C(=O)Cc2ccccc2)CC1	inconclusive: 7.08 µM [inhibitor, full curve, poor fit]	–
